Measurements from PubChem BioAssay AID686979 (National Center for Advancing Translational Sciences (NCATS), 2013).
The whole screen tested about 420,000 compounds, of which about 50,000 (12%) were called active. Inconclusive results, whose numbers are uncertain, are shown with a selection of clear calls. The call rests on the fitted dose curve; in most records, active means well fitted inhibition curve with a large enough effect; inconclusive means small, poorly fitted or top-dose-only effect; inactive means flat fitted curve, though single readings scatter. Potencies of inconclusive entries are left out as doubtful fits.

Assay: qHTS for Inhibitors of human tyrosyl-DNA phosphodiesterase 1 (TDP1): qHTS in cells in presence of CPT; further: nearly all actives have a fitted effect of over 55% in size
Settings: chicken DT40 Tdp1-/-;hTDP1 cells + 20 nM CPT, ATP luminescence, 48 h; activity change, negative = growth inhibition: at 46.2 µM (top of the series)
In short: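 Cell growth measured by CellTiter-Glo luminescence after a minimum 48 h, 37 C compound exposure with 20 nM CPT in Tdp1-knockout DT40 cells stably expressing hTDP1, seeded 400/well; qHTS titration format.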
On the % scale 0 is the no-effect control and ±100 the full control effect; potency means the concentration at half of the fitted maximal effect; tags describe the fitted curve by direction and shape.

SMILES | Potency | activity change, negative = growth inhibition
COC(=O)C1=C(C)NC(C)=C(C(=O)OC)C1C(=O)OCC(=O)N1c2ccccc2CC1C (stereo unspecified) | inconclusive [inhibitor, single point] | –
COc1ccc(Cl)cc1NC(=O)c1ncn(-c2ccccc2)n1 | – | inactive: -22.1%
CC(C)OC(=O)c1cccc(C(=O)Nc2cccc(NC(=O)c3cccc(C(=O)OC(C)C)n3)n2)n1 | inconclusive [inhibitor, full curve] | –
O=C(N/N=C/c1ccc(OC(=O)c2ccccc2)cc1)c1cccnc1 | – | inactive: -14.2%
COC(=O)c1ccccc1NS(=O)(=O)c1c(C)noc1C | – | inactive: -16%
Cc1ccccc1-c1csc(C(C)(O)c2cccnc2)n1 (stereo unspecified) | inconclusive [inhibitor, single point] | –
CCC(C(=O)Nc1ccccc1F)n1nc(C)c2c(C)n(-c3ccccc3)nc2c1=O (stereo unspecified) | inconclusive [inhibitor, single point] | –
COc1ccc(C(=O)COC(=O)C(CC(C)C)N2C(=O)c3ccccc3C2=O)cc1 (stereo unspecified) | inconclusive [inhibitor, single point] | –
COc1ccccc1-c1coc2c(CN3C(C)CCCC3C)c(O)ccc2c1=O (stereo unspecified) | inconclusive [inhibitor, single point] | –
COc1cc2c(cc1O)C(Cc1ccc(O)cc1)[N+](C)([O-])CC2 (stereo unspecified) | – | inactive: -18.8%
C#CCN1C(=O)C(O)(CC(=O)c2ccc(OC)c(OC)c2)c2ccccc21 (stereo unspecified) | inconclusive [inhibitor, single point] | –
CCCCN1C(=O)C(CC(=O)NC(c2ccccc2)c2ccccc2)CC(C(=O)N(CC)CC)=C1C (stereo unspecified) | active: 18.4 µM | –
CC(C)c1ccc(OCC(O)CN2CCN(c3ccccn3)CC2)cc1 (stereo unspecified) | active: 25.9 µM | –
CC1(C)Cc2c(C#N)c(OCC(=O)c3ccccc3)nc(-c3ccoc3)c2CO1 | – | inconclusive: -32.4% [inhibitor]
CCCCCCCCCC[n+]1ccc(/C=C/c2c(C)[nH]c3ccccc23)c2ccccc21 | active: 0.794 µM | –
NC(=O)C1CCN(C2CC(=O)N(c3ccc(F)c(Cl)c3)C2=O)CC1 (stereo unspecified) | inconclusive [inhibitor, single point] | –
O=C(CSc1ccc(-c2ccc(F)cc2)nn1)NCCc1ccccc1 | – | inactive: -4.3%
CCc1nc2c(OCCc3cccc(OC)c3)cccn2c1N(C)C(=O)c1ccc(OC)cc1 | inconclusive [inhibitor, partial curve, poor fit] | –
CCc1ccc(NC(=O)Cn2c(=O)n(-c3ccccc3)c(=O)c3ccc(C(=O)NCc4ccc5c(c4)OCO5)cc32)cc1 | inconclusive [inhibitor, single point] | –
Cc1ccccc1-c1ccc(CN2C(C)C(=O)N(Cc3cn(Cc4ccco4)nn3)CCS2(=O)=O)cc1 (stereo unspecified) | inconclusive [inhibitor, single point] | –
O=C(NCCCc1ccncc1)C1CCC(=O)N(Cc2cccc(F)c2)C1 (stereo unspecified) | – | inactive: -17.9%
CCC(=O)N1CCC1(C)C(=O)Nc1ncc(C)s1 (stereo unspecified) | – | inactive: -19.6%
O=C(c1noc2c1CCCC2)N1CCN(c2ccc(F)cc2)CC1 | inconclusive [inhibitor, single point] | –

SMILES | Potency | activity change, negative = growth inhibition
CCN1CCOC(=O)C1CC(=O)Nc1ccc(C(C)=O)cc1 (stereo unspecified) | active: 20.6 µM | –
C[C@@H]1CN([C@H](C)CO)C(=O)c2cc(Br)cnc2O[C@@H]1CN(C)Cc1ccc(-c2ccccc2)cc1 | inconclusive [inhibitor, single point] | –
CCn1nc(C)c(CNC(=O)CC2C(=O)NCCN2CC(C)(C)C)c1C (stereo unspecified) | – | inactive: 0.657%
Clc1ccc(-c2nc(/C=N/N3CCOCC3)c3ccccn23)cc1 | inconclusive [inhibitor, single point] | –
Cc1ccc(-c2csc3ncnc(SCC(=O)c4ccc5c(c4)OCCO5)c23)cc1 | inconclusive [inhibitor, partial curve] | –
CC1CCC(C(C)C)C(OC(=O)Cn2c(-c3ccc(Cl)cc3)[n+](C)c3ccccc32)C1 (stereo unspecified) | active: 2.31 µM | –
COc1ccc(OCc2cc(C(=O)N(Cc3nccn3C)C(C)C)no2)c2ccccc12 | active: 20.6 µM | –
Cc1ccccc1OCc1ccc(-c2nc(C#N)c(N3CCN(c4ccccc4)CC3)o2)o1 | – | inactive: -14.2%
CCOC(=O)c1c(C2CC2)csc1NC(C)=O | – | inactive: -6.5%
Cc1cccc(C(=O)Nc2cc(C)ccc2NC(=O)COc2ccccc2)c1 | inconclusive [inhibitor, single point] | –
O=C(NCCCc1nc2ccccc2n1Cc1ccccc1)C1CCCCC1 | active: 18.4 µM | –
Cc1ccc(S(=O)(=O)N2CCN(CC(=O)N/N=C\c3ccccn3)CC2)cc1 | – | inactive: -10.2%
COCCn1c(=S)[nH]c2cc(C(=O)N3CCC(C(N)=O)(N4CCCCC4)CC3)ccc2c1=O | – | inactive: -0.89%
CC1(C)CC(=O)C(c2ccccc2)(c2ccccc2)C(=O)C1 | inconclusive [inhibitor, partial curve] | –
O=C(c1ccco1)n1nc(-c2ccc(Cl)cc2)nc1NCc1ccco1 | inconclusive [inhibitor, single point] | –
CC(=O)CCC(=O)NC1CCCc2c1cnn2-c1ccc(C(C)(C)C)cc1 (stereo unspecified) | inconclusive [inhibitor, single point] | –
COc1cccc(C(=O)Nc2ccc(-n3nncc3C(C)(C)C)cc2)c1 | inconclusive [inhibitor, partial curve, poor fit] | –
O=c1[nH]c(N2CCOCC2)cc2ccccc12 | – | inactive: -15.3%
C=CCN(CC=C)Cc1c(O)ccc2c1oc(=O)c1ccccc12 | inconclusive [inhibitor, partial curve, poor fit] | –
Nc1nc(SCc2ccccc2)c2ncn(Cc3ccccc3)c2n1 | inconclusive [inhibitor, single point] | –
O=C(CSc1nnc(CNC(=O)c2cccs2)o1)NCCc1ccccc1 | – | inactive: -3.38%
CN(C)c1cc2c(cc1NC(=O)c1ccc(F)cc1)n(C)c(=O)n2C | inconclusive [inhibitor, single point] | –
CCOc1ccc(CNC(=O)c2ccc(NC(=O)N3CCSc4ncccc43)cc2)cc1OC | inconclusive [inhibitor, partial curve] | –
